# Reference: the BET-seq Pho4 binding data (Le et al. 2018)
# The list shows a part of the results. The energies were worked out here from pooled read counts, against the library average; single values are noisy.
# Biological target: T1, Pho4 (S. cerevisiae) (UniProt P07270)
# T1 sequence: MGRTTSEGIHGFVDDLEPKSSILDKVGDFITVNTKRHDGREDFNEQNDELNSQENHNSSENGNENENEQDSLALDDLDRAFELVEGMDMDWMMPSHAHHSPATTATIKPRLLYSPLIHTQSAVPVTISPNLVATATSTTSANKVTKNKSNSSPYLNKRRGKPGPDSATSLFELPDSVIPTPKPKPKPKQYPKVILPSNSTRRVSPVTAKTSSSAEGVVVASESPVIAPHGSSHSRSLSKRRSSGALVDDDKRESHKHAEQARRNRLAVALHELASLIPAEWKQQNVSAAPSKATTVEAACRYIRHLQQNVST
# Assay: relative binding free energy (BET-seq); higher = weaker binding
# Conditions: reference: library average
row,Sequence,relative binding free energy
1,TTTTTCACGTGTGTGA,0.24 kcal/mol
2,GGATGCACGTGCAGAT,0.24 kcal/mol
3,TTTATCACGTGCGATT,0.3 kcal/mol
4,TGTTCCACGTGAGGTT,0.31 kcal/mol
5,GCATGCACGTGTTAGG,0.03 kcal/mol
6,GGGGTCACGTGGGGTT,0.09 kcal/mol
7,GTTATCACGTGGGGGC,0.03 kcal/mol
8,GGATTCACGTGACTTG,0.37 kcal/mol
9,GTGTTCACGTGTGCAG,0.05 kcal/mol
10,TGTTTCACGTGTTTAA,0.19 kcal/mol
11,GGGTACACGTGGGTAA,0.16 kcal/mol
12,GGTGTCACGTGTAGTA,0.21 kcal/mol
13,GTTGGCACGTGTCTCT,-0.06 kcal/mol
14,GAATGCACGTGCGATG,0.29 kcal/mol
15,ATGCTCACGTGGGTGT,0.05 kcal/mol
16,GAAGTCACGTGTATAT,0.21 kcal/mol
17,GGGAGCACGTGTAGAT,0.23 kcal/mol
18,CGTTGCACGTGTGTAA,-0.04 kcal/mol
19,TTGTCCACGTGAAGTT,0.39 kcal/mol
20,AGGCGCACGTGGTTTG,-0.18 kcal/mol
21,TTAAACACGTGGTAGA,-0.04 kcal/mol
22,TTCCGCACGTGGGTGT,-0.1 kcal/mol
23,AGAGTCACGTGGGATA,-0.07 kcal/mol
24,GTTGGCACGTGTGTTT,0 kcal/mol
25,TGATTCACGTGGGATC,0.27 kcal/mol
26,AGATACACGTGGAGTG,-0.06 kcal/mol

row,Sequence,relative binding free energy
1,TTTTGCACGTGTGCCT,0.08 kcal/mol
2,AGAGGCACGTGCGGCT,-0.17 kcal/mol
3,ATCGACACGTGGTGTT,-0.04 kcal/mol
4,TGTGGCACGTGTAACG,0.15 kcal/mol
5,GATCACACGTGGGGGC,0.05 kcal/mol
6,TACAACACGTGGTTAT,0.19 kcal/mol
7,TGCTTCACGTGTCTTG,0.25 kcal/mol
8,GTGGGCACGTGCCGGC,-0.16 kcal/mol
9,CGAGTCACGTGTATGG,-0.01 kcal/mol
10,TGGGACACGTGCTAGT,0 kcal/mol
11,GAGTTCACGTGTGGAG,0.35 kcal/mol
12,GTAAGCACGTGAGTAG,0.1 kcal/mol
13,ATTTGCACGTGCATGT,-0.28 kcal/mol
14,ATATGCACGTGCTTTG,-0.07 kcal/mol
15,TATATCACGTGAGGGT,0.4 kcal/mol
16,GGGTACACGTGCTGTG,0.09 kcal/mol
17,TCGAACACGTGTGGGT,0.01 kcal/mol
18,TTATACACGTGTGTGC,0.11 kcal/mol
19,GATTGCACGTGTCTGT,0.12 kcal/mol
20,AGGGCCACGTGGAGTT,-0.17 kcal/mol
21,TTAGCCACGTGGGTAG,-0.19 kcal/mol
22,CGTAGCACGTGAAGTG,0.4 kcal/mol
23,TGCAGCACGTGGCGGG,-0.24 kcal/mol
24,GTTAACACGTGTAAGG,0.14 kcal/mol
25,CGGGGCACGTGTTGCG,-0.21 kcal/mol
26,ACGGTCACGTGGATTT,0.14 kcal/mol

row,Sequence,relative binding free energy
1,GTAATCACGTGTTCTT,0.17 kcal/mol
2,GGAATCACGTGGTGTA,0.11 kcal/mol
3,AGGGTCACGTGGAGAG,0.16 kcal/mol
4,ATGGGCACGTGGGTCG,-0.22 kcal/mol
5,GAGTGCACGTGCGTTT,-0.05 kcal/mol
6,CATTGCACGTGACGTG,0.11 kcal/mol
7,TTTAACACGTGAAGCT,0.23 kcal/mol
8,GGCGGCACGTGGGGCC,-0.19 kcal/mol
9,CGTTTCACGTGTTAGC,0.37 kcal/mol
10,GTTTTCACGTGGAGAT,0.32 kcal/mol
11,GGTCTCACGTGGATGA,0.12 kcal/mol
12,ATGTACACGTGGCGCG,-0.03 kcal/mol
13,TTTGTCACGTGGGCTC,-0.06 kcal/mol
14,CTTGGCACGTGGGGCG,-0.25 kcal/mol
15,AACGTCACGTGGTTTG,0.08 kcal/mol
16,TCTTTCACGTGTCTTG,0.33 kcal/mol
17,GTATACACGTGGTCGG,-0.14 kcal/mol
18,TGAGTCACGTGGTGTC,0 kcal/mol
19,GGGATCACGTGAATGG,0.47 kcal/mol
20,TTTAGCACGTGAAAGG,0.2 kcal/mol
21,TGGAACACGTGTGGCG,0.1 kcal/mol
22,CGTAGCACGTGGAGGT,-0.09 kcal/mol
23,AGTTACACGTGACGTG,0.26 kcal/mol
24,TAGCTCACGTGTTGGT,0.26 kcal/mol
25,GAAGTCACGTGGTTCT,0.24 kcal/mol
26,CGTTTCACGTGGGGAT,0.06 kcal/mol

row,Sequence,relative binding free energy
1,GGGGACACGTGGTTAT,-0.05 kcal/mol
2,AGTCGCACGTGTTCGT,0.02 kcal/mol
3,GTCGGCACGTGATTTG,0.28 kcal/mol
4,TATGACACGTGGTACG,-0.01 kcal/mol
5,ATCTGCACGTGGGTAG,-0.08 kcal/mol
6,TTCAGCACGTGGGGAT,-0.12 kcal/mol
7,TGCTCCACGTGTTTGG,-0.02 kcal/mol
8,CTAGGCACGTGTTTTT,-0.03 kcal/mol
9,GTTAGCACGTGGACGT,-0.05 kcal/mol
10,AGATTCACGTGTATAT,0.24 kcal/mol
11,AATGGCACGTGTGCTT,-0.19 kcal/mol
12,TTGTCCACGTGAGGGG,0.22 kcal/mol
13,TTGCGCACGTGTACAG,0 kcal/mol
14,TGTCGCACGTGACATG,0.11 kcal/mol
15,GTGGACACGTGGTCAG,0.03 kcal/mol
16,GTAGGCACGTGTGAAG,0.12 kcal/mol
17,TGTTCCACGTGGAGAT,0.1 kcal/mol
18,TTCGGCACGTGTGTGT,-0.11 kcal/mol
19,AATTTCACGTGTTCTG,0.2 kcal/mol
20,CTTCTCACGTGGTGGG,0.11 kcal/mol
21,CGAGGCACGTGTGGCT,-0.04 kcal/mol
22,ATAGCCACGTGGAGGG,-0.03 kcal/mol
23,GTGTTCACGTGTGTGG,0.37 kcal/mol
24,GGTGACACGTGGGTAG,-0.06 kcal/mol
25,CTTTTCACGTGAATAG,0.46 kcal/mol
26,AGTGACACGTGGCTGG,-0.04 kcal/mol

row,Sequence,relative binding free energy
1,ATTAGCACGTGGCGTC,-0.04 kcal/mol
2,TGTTGCACGTGTGACG,0.06 kcal/mol
3,CGGGACACGTGTGGCT,0.05 kcal/mol
4,TTAGACACGTGTGTAA,0.04 kcal/mol
5,TTTAACACGTGATGTA,0.16 kcal/mol
6,GGGGGCACGTGTGTTT,-0.12 kcal/mol
7,TGTGCCACGTGGAAAG,0.09 kcal/mol
8,AAGGGCACGTGTCGAT,0.06 kcal/mol
9,GTGGTCACGTGGTTTT,0.21 kcal/mol
10,ATTCACACGTGAGGGG,0.2 kcal/mol
11,CGTTGCACGTGTTGCT,-0.08 kcal/mol
12,CGGTCCACGTGGGGTG,-0.26 kcal/mol
13,GGGCCCACGTGGAGGT,-0.13 kcal/mol
14,TTACTCACGTGTGCTG,0.16 kcal/mol
15,GGGCACACGTGCTGGT,-0.07 kcal/mol
16,CTATTCACGTGTTTTG,0.27 kcal/mol
17,TACTACACGTGGGAGG,0.06 kcal/mol
18,ATTTTCACGTGGGTAG,0.25 kcal/mol
19,GTGTCCACGTGTTGAG,-0.02 kcal/mol
20,TATAGCACGTGATGGC,0.2 kcal/mol
21,GGTGCCACGTGATGGA,0.12 kcal/mol
22,GGGTTCACGTGTGCTT,0.31 kcal/mol
23,AGTATCACGTGTTTCT,0.17 kcal/mol
24,GTCGGCACGTGTGGTA,0.01 kcal/mol
25,GGATGCACGTGGAGCA,0.1 kcal/mol
26,AATTTCACGTGAGTGC,0.25 kcal/mol

row,Sequence,relative binding free energy
1,AAATTCACGTGCGTAT,0.26 kcal/mol
2,ATATACACGTGCGGGG,-0.04 kcal/mol
3,TTGGTCACGTGATTCG,0.29 kcal/mol
4,ATGGGCACGTGTTGCC,0.1 kcal/mol
5,GGTTGCACGTGGGTAG,-0.16 kcal/mol
6,ATAGACACGTGGCGTG,0.05 kcal/mol
7,AGTAGCACGTGTTTTC,-0.04 kcal/mol
8,CGAGTCACGTGCGGCG,0.13 kcal/mol
9,GGGGGCACGTGACGAA,0 kcal/mol
10,ATTCGCACGTGTGTCG,0.04 kcal/mol
11,GTGCGCACGTGTTTGC,-0.1 kcal/mol
12,GGGGACACGTGTTCGG,0 kcal/mol
13,AGTTGCACGTGGTTGG,0.01 kcal/mol
14,GGGACCACGTGGGAGT,-0.22 kcal/mol
15,CGGGGCACGTGTGTAG,-0.09 kcal/mol
16,AGAGCCACGTGTTAGT,-0.03 kcal/mol
17,TTCAACACGTGTGTAA,0.1 kcal/mol
18,GGAGGCACGTGGTAAT,-0.17 kcal/mol
19,GGGTCCACGTGTATGT,0.04 kcal/mol
20,TTAGACACGTGGTGCG,-0.28 kcal/mol
21,TTTAGCACGTGATATT,0.22 kcal/mol
22,TGAAGCACGTGTGGAC,0.03 kcal/mol
23,TTCGTCACGTGCATGT,0.06 kcal/mol
24,TATTCCACGTGAGGGT,0.19 kcal/mol
25,GGGCGCACGTGTTTAG,0.01 kcal/mol
26,GGTCTCACGTGGGAGG,0.09 kcal/mol

row,Sequence,relative binding free energy
1,GTGGTCACGTGGGAAT,0.19 kcal/mol
2,GTTGACACGTGGGAGA,-0.1 kcal/mol
3,TGGGGCACGTGGTATC,-0.14 kcal/mol
4,CTGGGCACGTGGTGAT,-0.14 kcal/mol
5,TCGGGCACGTGTATCG,-0.02 kcal/mol
6,TAGATCACGTGTATTG,0.04 kcal/mol
7,TCTACCACGTGGGTTG,-0.11 kcal/mol
8,AATTTCACGTGAGCGG,0.26 kcal/mol
9,GCGGGCACGTGGGTCC,-0.02 kcal/mol
10,GGTCTCACGTGGTGGG,0.22 kcal/mol
11,GTTGACACGTGATCGG,0.15 kcal/mol
12,GAAAGCACGTGGAGGT,-0.18 kcal/mol
13,TGTAACACGTGTTGCT,0.04 kcal/mol
14,TCTGTCACGTGGTTTG,-0.01 kcal/mol
15,TTGTGCACGTGGCTGA,-0.02 kcal/mol
16,AGTGTCACGTGTATGC,0.08 kcal/mol
17,AAATACACGTGTTGTG,-0.01 kcal/mol
18,TCTGGCACGTGTGTTG,-0.1 kcal/mol
19,CGAGGCACGTGTGGAG,-0.02 kcal/mol
20,GCGGTCACGTGTAGCG,0.31 kcal/mol
21,GTTGGCACGTGTGAAA,0 kcal/mol
22,ACTGACACGTGTGTGT,0.03 kcal/mol
23,GGTTTCACGTGGTATG,0.26 kcal/mol
24,GCCTTCACGTGGTTGG,0.18 kcal/mol
25,CGTGTCACGTGGGCGA,-0.08 kcal/mol
26,TGGGCCACGTGGGGTT,-0.19 kcal/mol

row,Sequence,relative binding free energy
1,TTTCGCACGTGGGTTG,-0.12 kcal/mol
2,GTGCGCACGTGCTTGG,-0.01 kcal/mol
3,TCCGTCACGTGTTGTT,0.21 kcal/mol
4,TTGTTCACGTGGAAGG,0.35 kcal/mol
5,GGTTGCACGTGATGCA,0.1 kcal/mol
6,GGATTCACGTGAAGAT,0.36 kcal/mol
7,TTAGGCACGTGTGTTT,-0.09 kcal/mol
8,GTAGGCACGTGGTTAC,-0.18 kcal/mol
9,TACGGCACGTGTTCGT,0.16 kcal/mol
10,TGTAGCACGTGGGACA,-0.25 kcal/mol
11,GGAGTCACGTGACTTT,0.37 kcal/mol
12,TGGGACACGTGTATCT,-0.02 kcal/mol
13,TTAGTCACGTGATTTG,0.27 kcal/mol
14,TGTCGCACGTGTTTAA,-0.12 kcal/mol
15,TGTTTCACGTGGAAAG,0.29 kcal/mol
16,TGCATCACGTGATTTA,0.24 kcal/mol
17,GGGTACACGTGGGTGG,-0.04 kcal/mol
18,TATTTCACGTGCAAGT,0.28 kcal/mol
19,GGCATCACGTGTGGTA,0.15 kcal/mol
20,TGGCGCACGTGAGTAA,0.15 kcal/mol
21,GGTTCCACGTGAGGAG,0.37 kcal/mol
22,TTATGCACGTGTTCTT,-0.15 kcal/mol
23,ATTAACACGTGTTTTA,-0.12 kcal/mol
24,TAGAACACGTGAAAGG,0.45 kcal/mol
25,CGTATCACGTGTAATG,0.33 kcal/mol
26,CGTTTCACGTGCGGTG,0.27 kcal/mol

row,Sequence,relative binding free energy
1,CGGTTCACGTGTGCGC,0.35 kcal/mol
2,TTATACACGTGTTTTC,-0.04 kcal/mol
3,TTTCGCACGTGGACGG,0.04 kcal/mol
4,AGGTACACGTGGGTGA,-0.08 kcal/mol
5,GGGGCCACGTGTTGAG,0 kcal/mol
6,GGCGACACGTGGGGTG,-0.04 kcal/mol
7,TTTGGCACGTGCATAG,-0.18 kcal/mol
8,TAAAGCACGTGGTTTG,-0.1 kcal/mol
9,TTTATCACGTGTACAT,-0.03 kcal/mol
10,GTTAGCACGTGAGAGC,0.24 kcal/mol
11,TTAGGCACGTGGGAGT,-0.11 kcal/mol
12,ATCTACACGTGGAGGT,0.11 kcal/mol
13,GGCTGCACGTGTGGAG,0.15 kcal/mol
14,TGTTACACGTGCGATT,-0.02 kcal/mol
15,GGCGACACGTGTGGAT,0.26 kcal/mol
16,TGTATCACGTGGTCCG,0.13 kcal/mol
17,TGTGCCACGTGAGTGC,0.1 kcal/mol
18,AGTTACACGTGGTTAG,0.1 kcal/mol
19,ACGTGCACGTGGGTCA,-0.21 kcal/mol
20,GGGTCCACGTGGCTGT,0.07 kcal/mol
21,TGGCTCACGTGTGTAA,0.21 kcal/mol
22,AGTGTCACGTGGGGAA,-0.06 kcal/mol
